About 540 (0.36%) of roughly 150,000 compounds showed an effect of 50% or more. Some of the results follow.

This test concerns Plasmodium falciparum. Put plainly: Primary screen in NF54 nanoGlo assay, in single point, at 2uM, 72h; a lower Z score goes with more inhibition. The class given is functional, Erythrocyte. The note with it: timepoint 72 hour.
With `COc1ccc(-n2ncnc2CCn2ccccc2=O)cc1`, the “% Inhibition” value stood at 1% and the Z score is given as -0.08.
On the same counts, the results for `CC(C)(C(=O)O)c1cnc(NCc2n[nH]c3c2CCC3)nc1N1CCOCC1` are -5% and 0.52.
On the same counts, the results for `CCn1cnc2c1CCN(C(=O)Nc1cc(C3(C)CCCC3)on1)C2` are -1% and 0.08.
On the same counts, the results for `Cc1cc(C(=O)Nc2ccccc2N2CCCC2=O)c(C)n1Cc1ccco1` are 17% and -3.2.
`COC[C@H]1CCCN(C(=O)c2ccc(OC3CCN(C)CC3)c(OC)c2)C1`: the “% Inhibition” value was -5% and the Z score came to 0.76.
On the same counts, the results for `O=C(Cn1nnc2ccccc21)NC1CCCC1` are -6% and 0.85.
On the same counts, the results for `CCOc1ccc(Cn2c(CN3C(=O)c4ccccc4C3=O)nc3cccnc32)cc1` are -4% and 0.68.
Take `N#Cc1ccsc1NC(=O)c1cccc(CN2CCS(=O)(=O)CC2)c1`: the “% Inhibition” value is on record as -7% and the Z score was 0.61.
On the same counts, the results for `Cc1nc(C(=O)[C@H](C#N)C(=O)NC(C)C)cs1` are 7% and -0.67.
As for `CO[C@H]1CCN(Cc2ccc(C3CCCCC3)s2)C1`, the “% Inhibition” value is reported as -5% and the Z score is 0.55.
On the same counts, the results for `N#Cc1cccc([C@@H](C#CC2CCCCC2)N2CCN(CCO)CC2)c1` are -5% and 0.8.
The like results for `COc1cccc(Cc2nc(-c3ccc(Oc4ccc(NC(C)=O)cc4)cc3)no2)c1` were, in that order, -17% and 1.95.
The like results for `CN(CCN(C)C1CC1)C(=O)c1scnc1C(F)(F)F` were, in that order, -4% and 0.45.
Regarding `Cc1nc(C)n(CCNC(=O)c2cnc(-c3cccnc3)nc2)n1`, the “% Inhibition” value is given as -10% and the Z score is given as 0.95.
The like results for `Cc1ccn(CC(=O)N2CC[C@@]3(CCCN(CCCc4ccccc4)C3)C2)n1` were, in that order, -15% and 1.33.
The like results for `O=C(N[C@H]1CCOC[C@H]1C1CCOCC1)c1cccc(OC(F)F)c1` were, in that order, -3% and 0.41.
The like results for `CO[C@@]1(C)C[C@@H](O)C12CCN(c1ccc(Cl)c(C(=O)O)n1)CC2` were, in that order, -12% and 1.21.
In the case of `CCCC[C@H](CC)C(=O)Nc1ccc(OC)nc1`, the “% Inhibition” value was -7% and the Z score is given as 1.24.
Turning to `O=C(CCCOc1ccccc1)Nc1nnn[nH]1`, the “% Inhibition” value was -4% and the Z score stood at 0.64.
`Cc1noc2ncc(C(=O)N3CC(C)OC(C)C3)cc12` (configuration not stated): the “% Inhibition” value is recorded as -5% and the Z score is 1.1.
The like results for `CC(C)C(=O)N(CCN1CCOCC1)Cc1cc(Cl)ccc1OCc1nc(CO)cs1` were, in that order, -7% and 1.
On the same counts, the results for `Cc1ccc(CN(C[C@H](O)COCc2ccccc2)C2CC2)o1` are -9% and 1.31.
On to `Cn1cc(-c2ccccc2)cc1C(=O)N1CCOCC1`, for which the “% Inhibition” value was found to be 7% and the Z score is -1.02.
The like results for `O=C(NCCc1cnn(-c2ccccc2)c1)c1cc2ncc(CCO)cn2n1` were, in that order, -11% and 1.92.
The like results for `OC[C@H]1CCCN(Cc2csc(-c3ccsc3)n2)[C@H]1CO` were, in that order, -14% and 2.42.
The like results for `Cc1cccc(NC(=O)N2CCN(c3ccc(NC(=O)CC(C)C)cc3C(=O)NCc3ccc(F)cc3)CC2)c1` were, in that order, -7% and 0.99.
With `CCOc1ccc(N(C)S(=O)(=O)c2cc(-c3nc(-c4ccccc4)no3)sc2C)cc1`, the “% Inhibition” value is given as -1% and the Z score turned out to be 0.09.
The like results for `Clc1ccc(-n2nnnc2C2(Nc3ccc4c(c3)OCCO4)CCCC2)cc1` were, in that order, 0% and 0.03.
On the same counts, the results for `CO[C@H]1CCN(c2cc(C(F)(F)F)ncn2)C1` are -7% and 0.84.
On the same counts, the results for `CCn1nc(CN2CCCN(C(=O)c3cnn(C)c3)CC2)c2c1CCOC2` are -16% and 1.44.
For `C[C@H](NCc1cc(C2CC2)ccc1F)c1ccc(F)cn1`, the “% Inhibition” value is -2% and the Z score is 0.33.
As for `CN(C)C[C@H]1CN(C(=O)Nc2ccc(OC3CCC3)c(F)c2)CCO1`, the “% Inhibition” value came out at 1% and the Z score is -0.16.
The like results for `O=C1C[C@H](C(=O)Nc2ccc3scnc3c2)C2(CCCC2)O1` were, in that order, -3% and 0.49.
The like results for `CCOC(=O)c1cc(C(F)(F)F)nc(C(F)(F)F)c1` were, in that order, 7% and -1.02.
On the same counts, the results for `CC(=O)Nc1ccc(CN2CCC[C@H]2c2nc(-c3ccnc(NS(C)(=O)=O)c3)no2)cc1` are 14% and -1.66.
Regarding `Cc1cc(Oc2ncccc2C#N)ccc1NC(=O)c1cc2ccc(F)cc2nc1C`, the “% Inhibition” value is -10% and the Z score amounted to 1.48.
On the same counts, the results for `COc1cncc(C=CCCN2CCc3[nH]ncc3C2)c1` are 8% and -1.46.
The like results for `COc1ccccc1C=CCN1CCS(=O)(=O)C(C)(C)C1` were, in that order, 2% and -0.13.
`Cc1ncc(CN(C)C(=O)Nc2cccnc2)s1`: the “% Inhibition” value is -9% and the Z score is listed as 0.84.
The like results for `CS(=O)(=O)NC1CCCC1CNc1ncc(F)cn1` (configuration not stated) were, in that order, -21% and 2.65.
On the same counts, the results for `O=C([C@@H]1Cc2cc(Cl)ccc2O1)N1CCN(c2ccccc2)CC1` are -15% and 1.43.

Values taken from ChEMBL document CHEMBL4888484, “Replenishing the malaria drug discovery pipeline: Screening and hit evaluation of the MMV Hit Generation Library 1 (HGL1) against asexual blood stage Plasmodium falciparum ,using a nano luciferase reporter read-out” (2022).
